These are yes or no findings as the source states them, for the method shown. For some of these results: In cells and extracts the contact can be indirect. Some binding calls cover weakened binding; strength is not graded here.
Key:
[1] = molecular target: HA-Uls1 (S. cerevisiae) (UniProt Q08562); assay: co-IP; extracts of strain ZY528 (genomic TAP-Slx5) with a plasmid for HA-Uls1; IgG beads (TAP-Slx5) or HA beads, 1.5 hr at 4°C, RNP buffer (20 mM HEPES pH 7.4, 100 mM NaCl, 0.1% NP-40); Western blot with anti-HA and anti-TAP
[2] = molecular target: Gal4BD-Smt3 (SUMO) (S. cerevisiae) [SUMO: Q12306]; assay: two-hybrid; Gal4AD and Gal4BD fusions (pGADT7, pGBKT7) in reporter strain PJ69-4A; His (10 mM 3AT) and Ade reporter phenotypes on plates
[3] = molecular target: T1, Gal4BD-Slx5 (S. cerevisiae) (UniProt P32828); assay: as above
T1 sequence: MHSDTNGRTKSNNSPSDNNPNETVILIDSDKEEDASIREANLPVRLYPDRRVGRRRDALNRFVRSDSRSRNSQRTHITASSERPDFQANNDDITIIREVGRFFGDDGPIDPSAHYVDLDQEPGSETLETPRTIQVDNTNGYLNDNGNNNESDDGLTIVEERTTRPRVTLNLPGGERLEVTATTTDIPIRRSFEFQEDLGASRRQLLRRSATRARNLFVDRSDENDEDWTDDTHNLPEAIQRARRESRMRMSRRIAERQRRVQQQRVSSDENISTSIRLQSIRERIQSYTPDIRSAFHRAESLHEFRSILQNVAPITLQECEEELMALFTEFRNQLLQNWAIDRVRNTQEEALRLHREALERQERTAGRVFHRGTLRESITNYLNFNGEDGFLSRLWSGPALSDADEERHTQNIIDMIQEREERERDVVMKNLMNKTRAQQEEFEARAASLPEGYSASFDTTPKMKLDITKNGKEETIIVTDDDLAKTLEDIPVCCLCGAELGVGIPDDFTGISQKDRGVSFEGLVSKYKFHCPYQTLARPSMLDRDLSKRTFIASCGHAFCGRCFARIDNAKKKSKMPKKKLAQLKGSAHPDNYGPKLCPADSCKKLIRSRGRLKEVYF

B1: TAP-Slx5 (protein, UniProt P32828 1-619)
chain: MHSDTNGRTKSNNSPSDNNPNETVILIDSDKEEDASIREANLPVRLYPDRRVGRRRDALNRFVRSDSRSRNSQRTHITASSERPDFQANNDDITIIREVGRFFGDDGPIDPSAHYVDLDQEPGSETLETPRTIQVDNTNGYLNDNGNNNESDDGLTIVEERTTRPRVTLNLPGGERLEVTATTTDIPIRRSFEFQEDLGASRRQLLRRSATRARNLFVDRSDENDEDWTDDTHNLPEAIQRARRESRMRMSRRIAERQRRVQQQRVSSDENISTSIRLQSIRERIQSYTPDIRSAFHRAESLHEFRSILQNVAPITLQECEEELMALFTEFRNQLLQNWAIDRVRNTQEEALRLHREALERQERTAGRVFHRGTLRESITNYLNFNGEDGFLSRLWSGPALSDADEERHTQNIIDMIQEREERERDVVMKNLMNKTRAQQEEFEARAASLPEGYSASFDTTPKMKLDITKNGKEETIIVTDDDLAKTLEDIPVCCLCGAELGVGIPDDFTGISQKDRGVSFEGLVSKYKFHCPYQTLARPSMLDRDLSKRTFIASCGHAFCGRCFARIDNAKKKSKMPKKKLAQLKGSAHPDNYGPKLCPADSCKKLIRSRGRLKEVYF
binding [1]: binds

B2: Gal4AD-Uls1Δ531-897 (protein, UniProt Q08562)
chain: MAAVPTIDLTLADSDNEDIFHSFSSSTSVDKIDIRKENGKLRMAGLEVAQSNDDAARQAFHVFKTNISNNETFDTILSKSKTITDSTFNNEKSSNEVKQQQVLKEETMGSSNDEKKTQESSPSAEMIKLFYENDDVPLSDSFKQKEEGKRINQDEQVKENICGISSSYVSKDYDGVEDDFEPNTCQDSNLDFQEEKLNLNNKPSQQQFSDPETKDNSLKSENKDQIKGVTTTSYRDLPIESSAFQDSETQNNSKNTIPNIVNEKRTPALPSNLSSVESSLKNETAKVEGKTTVRLPGLQNNVALLEQEQSELFKHFSEQPVDISDFGRKIKRKHSGDFADNKILKRPILPSKNMDHTTHNSHDSEQKNSSIIILSDEDESGAGINDIESPLKVSEPNTADALRSSVPEVISLLDLPNIDLNNSVIKEASGSNSIPTSETDAQSSSSSVLQGTIMTEQATQSSQHECNSSLDTLKKNHQKLLKDLNSRESELRNALSCCKTNSEILRRKLSRREKEVSDAEKHWQLLLTSMQDEFHISNMHAAEDQEQIRALLENVKQSESIIDGEALTPEDMTVNLLKHQRLGLHWLLQVENSAKKGGLLADDMGLGKTIQAIALMLANRSEESKCKTNLIVAPVSVLRVWKGELETKVKKRAKFTTFIFGGSGNGKVKHWRDLARYDAVLVSYQTLANEFKKHWPKKLDGEQNQLPAVPHIQALNRLKTSNEYYSPFFCNDSTFYRILLDEGQNIKNKNTRASKACCTINGMYRWVLSGTPIQNSMDELYSLIRFLRIPPYHKEQRFKLDIGRFFQRNKQYQYDNEDRKNALRKVRVLLNAIMLRRSKADKIDGKPLLELPPKIVEVDESRLKGEELKFYTALESKNQALAKKLLNNSTRGSYSSVLTLLLRLRQACCHSELVVMGEKKAEGTKVANGKSFEDDWLRLYYKITHMSGEAQAQVITSMNSMTCFWCMEQLEPEAMSVLTGCGHLICDTCIEPFIEESSMLPQAKKTKGGAFAIPCKDCQRLTNEKDIVSHKLYDQVINQGFTEEDLHAEYLSEMEKQKIQQKNVYVPNFESLEPSTKIEQCIQVIQRVFDESATEKIIIFSQFTTFFEILEHFLKNKLNFPYLKYIGSMNAQRRSDVINEFYRDPEKRILLISMKAGNSGLTLTCANHVVIVDPFWNPYVEEQAQDRCYRISQTKKVQVHKLFIKDSVEDRISELQKRKKEMVDSAMDPGKIKEVNSLGRRELGFLFGLNAL
binding [2]: binds | binding [3]: no binding

B3: Gal4AD-Uls1(531-897) (domain or fragment, UniProt Q08562 531-897)
chain: ARGGRTISSTQQILVDEAENQLNKLKEKRQLTKSKLDSINLKMYNYNEQWKSFVHSKNINLQKSLAALERSARDSKASATVNKRNECLAEKEKLDQMLKEGTLSFSTYKQLTGEIQQKLNDLKLGDQRTTDINSVLPIVRQPLAKRDLFIKSIDTAKDLLAKNTSRTEMTKRILYRHLDNLVSYKNFFEDGRSLIDINRRHVAHESAQILFTNGVKMPIVFETLQDYGIKFSNPAIVNPDRRAQYFKSIEVARDLISKSTRSEDAKRKITRFLNIIEEFRKDIDTGFPPTPLKREGVGKAVVGLRQQGLKMDRLYENLRRYKIPITSEELLQQSYLFPVNADQRPPSNWNIVENTEDTSSTANDLSM
binding [2]: no binding | binding [3]: binds

B4: Gal4AD-Uls1(554-955) (domain or fragment, UniProt Q08562 554-955)
chain: KLKEKRQLTKSKLDSINLKMYNYNEQWKSFVHSKNINLQKSLAALERSARDSKASATVNKRNECLAEKEKLDQMLKEGTLSFSTYKQLTGEIQQKLNDLKLGDQRTTDINSVLPIVRQPLAKRDLFIKSIDTAKDLLAKNTSRTEMTKRILYRHLDNLVSYKNFFEDGRSLIDINRRHVAHESAQILFTNGVKMPIVFETLQDYGIKFSNPAIVNPDRRAQYFKSIEVARDLISKSTRSEDAKRKITRFLNIIEEFRKDIDTGFPPTPLKREGVGKAVVGLRQQGLKMDRLYENLRRYKIPITSEELLQQSYLFPVNADQRPPSNWNIVENTEDTSSTANDLSMQDEFHISNMHAAEDQEQIRALLENVKQSESIIDGEALTPEDMTVNLLKHQRLGLHWLL
binding [2]: no binding | binding [3]: binds
